Assay results taken from the supplement of paper PMC8728848.
The list shows a part of the results.

Experiments:
Test in all cases: glycan array binding signal (z-score within array); higher = stronger binding
Conditions in all cases: glycan notation: IUPAC condensed, linker removed
[1] = molecular target: Neu5Ac(a2-6)Gal(b1-4)GlcNAc(b1-2)Man(a1-3)[Gal(b1-4)GlcNAc(b1-2)Man(a1-6)]Man(b1-4)GlcNAc(b1-4)GlcNAc
How it was run: (§1)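 The binding signal is a Z-score computed within each array. Data were drawn from 3228 arrays in the Consortium for Functional Glycomics database, restricted to those with a known protein sequence. Scores were averaged over arrays of the same protein sequence at different concentrations or buffers, and over linkers, and negative values can be taken as non-binding.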

[2] = molecular target: Neu5Ac(a2-6)Gal(b1-4)GlcNAc(b1-2)Man(a1-3)[GlcNAc(b1-2)Man(a1-6)]Man(b1-4)GlcNAc(b1-4)GlcNAc
How it was run: as §1

[3] = molecular target: Neu5Ac(a2-6)Gal(b1-4)GlcNAc(b1-2)Man(a1-3)[GlcNAc(b1-4)][Neu5Ac(a2-6)Gal(b1-4)GlcNAc(b1-2)Man(a1-6)]Man(b1-4)GlcNAc(b1-4)GlcNAc
How it was run: as §1

[4] = molecular target: Neu5Ac(a2-6)Gal(b1-4)GlcNAc(b1-2)Man(a1-3)[Man(a1-6)]Man(b1-4)GlcNAc(b1-4)GlcNAc
How it was run: as §1

[5] = molecular target: Neu5Ac(a2-6)Gal(b1-4)GlcNAc(b1-2)Man(a1-3)[Neu5Ac(a2-3)Gal(b1-4)GlcNAc(b1-2)Man(a1-6)]Man(b1-4)GlcNAc(b1-4)GlcNAc
How it was run: as §1

[6] = molecular target: Neu5Ac(a2-6)Gal(b1-4)GlcNAc(b1-2)Man(a1-3)[Neu5Ac(a2-6)Gal(b1-4)GlcNAc(b1-2)Man(a1-6)]Man(b1-4)GlcNAc(b1-4)GlcNAc
How it was run: as §1

[7] = molecular target: Neu5Ac(a2-6)Gal(b1-4)GlcNAc(b1-2)Man(a1-3)[Neu5Ac(a2-6)Gal(b1-4)GlcNAc(b1-2)Man(a1-6)]Man(b1-4)GlcNAc(b1-4)[Fuc(a1-6)]GlcNAc
How it was run: as §1

[8] = molecular target: Neu5Ac(a2-6)Gal(b1-4)GlcNAc(b1-2)Man(a1-6)Man(b1-4)GlcNAc(b1-4)GlcNAc
How it was run: as §1

[9] = molecular target: Neu5Ac(a2-6)Gal(b1-4)GlcNAc(b1-2)Man(a1-6)[Gal(b1-4)GlcNAc(b1-2)Man(a1-3)]Man(b1-4)GlcNAc(b1-4)GlcNAc
How it was run: as §1

[10] = molecular target: Neu5Ac(a2-6)Gal(b1-4)GlcNAc(b1-2)Man(a1-6)[GlcNAc(b1-2)Man(a1-3)]Man(b1-4)GlcNAc(b1-4)GlcNAc
How it was run: as §1

[11] = molecular target: Neu5Ac(a2-6)Gal(b1-4)GlcNAc(b1-2)Man(a1-6)[Man(a1-3)]Man(b1-4)GlcNAc(b1-4)GlcNAc
How it was run: as §1

[12] = molecular target: Neu5Ac(a2-6)Gal(b1-4)GlcNAc(b1-2)[Neu5Ac(a2-6)Gal(b1-4)GlcNAc(b1-4)]Man(a1-3)[GlcNAc(b1-4)][Neu5Ac(a2-6)Gal(b1-4)GlcNAc(b1-2)[Neu5Ac(a2-6)Gal(b1-4)GlcNAc(b1-6)]Man(a1-6)]Man(b1-4)GlcNAc(b1-4)GlcNAc
How it was run: as §1

[13] = molecular target: Neu5Ac(a2-6)Gal(b1-4)GlcNAc(b1-2)[Neu5Ac(a2-6)Gal(b1-4)GlcNAc(b1-4)]Man(a1-3)[GlcNAc(b1-4)][Neu5Ac(a2-6)Gal(b1-4)GlcNAc(b1-4)Man(a1-6)]Man(b1-4)GlcNAc(b1-4)GlcNAc
How it was run: as §1

[14] = molecular target: Neu5Ac(a2-6)Gal(b1-4)GlcNAc(b1-2)[Neu5Ac(a2-6)Gal(b1-4)GlcNAc(b1-6)]Man(a1-6)[Neu5Ac(a2-6)Gal(b1-4)GlcNAc(b1-2)Man(a1-3)][GlcNAc(b1-4)]Man(b1-4)GlcNAc(b1-4)GlcNAc
How it was run: as §1

[15] = molecular target: Neu5Ac(a2-6)Gal(b1-4)GlcNAc(b1-3)Gal(b1-3)GlcNAc
How it was run: as §1

[16] = molecular target: Neu5Ac(a2-6)Gal(b1-4)GlcNAc(b1-3)Gal(b1-4)GlcNAc
How it was run: as §1

[17] = molecular target: Neu5Ac(a2-6)Gal(b1-4)GlcNAc(b1-3)Gal(b1-4)GlcNAc(b1-2)Man(a1-3)[Neu5Ac(a2-6)Gal(b1-4)GlcNAc(b1-3)Gal(b1-4)GlcNAc(b1-2)Man(a1-6)]GalNAc
How it was run: as §1

[18] = molecular target: Neu5Ac(a2-6)Gal(b1-4)GlcNAc(b1-3)Gal(b1-4)GlcNAc(b1-3)Gal(b1-4)GlcNAc
How it was run: as §1

[19] = molecular target: Neu5Ac(a2-6)Gal(b1-4)GlcNAc(b1-3)Gal(b1-4)GlcNAc(b1-3)Gal(b1-4)GlcNAc(b1-2)Man(a1-3)[Neu5Ac(a2-6)Gal(b1-4)GlcNAc(b1-3)Gal(b1-4)GlcNAc(b1-3)Gal(b1-4)GlcNAc(b1-2)Man(a1-6)]GalNAc
How it was run: as §1

[20] = molecular target: Neu5Ac(a2-6)Gal(b1-4)GlcNAc(b1-3)Gal(b1-4)GlcNAc(b1-3)GalNAc
How it was run: as §1

[21] = molecular target: Neu5Ac(a2-6)Gal(b1-4)GlcNAc(b1-3)Gal(b1-4)GlcNAc(b1-3)[Neu5Ac(a2-6)Gal(b1-4)GlcNAc(b1-3)Gal(b1-4)GlcNAc(b1-6)]GalNAc
How it was run: as §1

[22] = molecular target: Neu5Ac(a2-6)Gal(b1-4)GlcNAc(b1-3)Gal(b1-4)GlcNAc(b1-6)[Gal(b1-3)]GalNAc
How it was run: as §1

[23] = molecular target: Neu5Ac(a2-6)Gal(b1-4)GlcNAc(b1-3)Gal(b1-4)[Fuc(a1-3)]GlcNAc(b1-3)Gal(b1-4)[Fuc(a1-3)]GlcNAc
How it was run: as §1

[24] = molecular target: Neu5Ac(a2-6)Gal(b1-4)GlcNAc(b1-3)GalNAc
How it was run: as §1

[25] = molecular target: Neu5Ac(a2-6)Gal(b1-4)GlcNAc(b1-3)[Neu5Ac(a2-6)Gal(b1-4)GlcNAc(b1-6)]GalNAc
How it was run: as §1

[26] = molecular target: Neu5Ac(a2-6)Gal(b1-4)GlcNAc(b1-6)GalNAc
How it was run: as §1

[27] = molecular target: Neu5Ac(a2-6)Gal(b1-4)GlcNAc(b1-6)[Gal(b1-3)GlcNAc(b1-3)]Gal(b1-4)Glc
How it was run: as §1

[28] = molecular target: Neu5Ac(a2-6)Gal(b1-4)GlcNAc(b1-6)[Gal(b1-3)]GalNAc
How it was run: as §1

[29] = molecular target: Neu5Ac(a2-6)Gal(b1-4)GlcNAc6S
How it was run: as §1

[30] = molecular target: Neu5Ac(a2-6)GalNAc
How it was run: as §1

[31] = molecular target: Neu5Ac(a2-6)GalNAc(b1-4)GlcNAc
How it was run: as §1

[32] = molecular target: Neu5Ac(a2-6)GalNAc(b1-4)GlcNAc6S
How it was run: as §1

B1: DrGal9 (Danio rerio) (protein)
chain: MAFYQQPPYYNPRIPFSGPIQGGLQDGKSIIISGRVLPGANRFHVNLQCGSHSEANVALHFNPRYEDTDYVVNNSYLNRTWGSEERKYESPFAQGQTFTLQILVAQDKYKISTNGRHFMDYKHRIPFTQVDTVAVEGMVEVNSVAFQNPAGFIPPQAGYAPQYAVPPGCGFPAFPSAPNYTIPHKTVMNGGLHPGKNIVINGVVNPNAKSIIFNLCYRSGIAFHYNPRFDENVVVRNTNQMEKWGAEERFGGLPFHKGQPFQVTISCNPQHYNVFVNGKQEHTYKHRYTKLNDIDILEICGDLQLTSVQA
Question: Which results are given for B1?
Answer: glycan array binding signal (z-score) [1]: 0.114; glycan array binding signal (z-score) [2]: -0.541; glycan array binding signal (z-score) [3]: -0.405; glycan array binding signal (z-score) [4]: -0.403; glycan array binding signal (z-score) [5]: -0.159; glycan array binding signal (z-score) [6]: -0.398; glycan array binding signal (z-score) [7]: -0.382; glycan array binding signal (z-score) [8]: -0.399; glycan array binding signal (z-score) [9]: 0.46; glycan array binding signal (z-score) [10]: -0.4; glycan array binding signal (z-score) [11]: -0.373; glycan array binding signal (z-score) [12]: -0.477; glycan array binding signal (z-score) [13]: -0.389; glycan array binding signal (z-score) [14]: -0.406; glycan array binding signal (z-score) [15]: 0.172; glycan array binding signal (z-score) [16]: 0.223; glycan array binding signal (z-score) [17]: 1.22; glycan array binding signal (z-score) [18]: 0.598; glycan array binding signal (z-score) [19]: 0.198; glycan array binding signal (z-score) [20]: 0.241; glycan array binding signal (z-score) [21]: -0.086; glycan array binding signal (z-score) [22]: 0.195; glycan array binding signal (z-score) [23]: -0.38; glycan array binding signal (z-score) [24]: -0.409; glycan array binding signal (z-score) [25]: -0.419; glycan array binding signal (z-score) [26]: -0.378; glycan array binding signal (z-score) [27]: -0.203; glycan array binding signal (z-score) [28]: -0.35; glycan array binding signal (z-score) [29]: -0.363; glycan array binding signal (z-score) [30]: -0.4; glycan array binding signal (z-score) [31]: -0.407; glycan array binding signal (z-score) [32]: -0.371
